Some of the results follow. At the low end of the ranking the order means little.

The target of the test is SIX1 homeodomain (reference allele) (UniProt Q15475). The experiment in a line: universal protein binding microarray. The following applies: Universal all-10-mer PBM (8x60K, AMADID 030236), 300 nM GST-tagged protein, Alexa Fluor 488 anti-GST; buffer, salt, pH and temperature not stated; high values mean tight binding; most listed sequences are background and not binding sites; double strand, one strand shown.
Turning to AGGCTTGG, the binding signal is -0.214 E-score. TAGAAGAA: the binding signal was -0.00643 E-score. Regarding AATAAAGT, the binding signal was -0.0148 E-score. For the sequence CAAAAGTG, the binding signal is -0.0709 E-score. As to CATCCCAG, the binding signal came to 0.172 E-score. Turning to ACTCGCCC, the binding signal was -0.123 E-score. Next, AACTAATG: -0.113 E-score; ACCCACAC: 0.142 E-score.

Regarding CGGGACTA, the binding signal was -0.273 E-score. The value for GTGTTCTA was 0.0365 E-score. On to ACGACTGC, for which the binding signal was -0.162 E-score. Take CTTCCGCC: the binding signal is -0.106 E-score. Turning to GCGATGTA, the binding signal is -0.0056 E-score. Take AGGGGACA: the binding signal was found to be 0.00302 E-score. On to GGAGAGCA, for which the binding signal is -0.119 E-score. In the case of CTCCTGAA, the binding signal was -0.0438 E-score.

As for ACGCCCGA, the binding signal came out at 0.0873 E-score. On to ACGTCCAT, for which the binding signal was -0.127 E-score. Next, AATTTAAA: -0.169 E-score; ACCTAGTC: -0.0876 E-score.

Consider GATCCCCC, for which the binding signal worked out at 0.47 E-score.

On to CATTTAAG, for which the binding signal was -0.221 E-score. Next, CACATTAC: -0.0893 E-score; ACAGAAGA: -0.00212 E-score.

On to CTGAAGTC, for which the binding signal is -0.23 E-score. The value for CACTGAGA was 0.188 E-score; that for CCAATAAA was -0.0581 E-score. As to AACGTCTA, the binding signal was -0.0932 E-score. Take GCTACATA: the binding signal came to 0.0846 E-score. Consider GTGTTACA, for which the binding signal came out at 0.108 E-score. Take GCATCCGA: the binding signal stood at 0.203 E-score. The value for ATTCTGAA was -0.225 E-score; that for GCCACAAA was -0.123 E-score; that for GATTATAC was 0.34 E-score. GGTTCTAC: the binding signal was -0.0478 E-score. Turning to AACGACAG, the binding signal was -0.149 E-score.

In the case of GATCAACC, the binding signal was determined as 0.319 E-score. Take GATTGTAA: the binding signal stood at 0.0188 E-score. For ATGGCGCG, the binding signal is -0.156 E-score. In the case of GGATGCAC, the binding signal is -0.102 E-score. Turning to ACTTGCCA, the binding signal is -0.274 E-score.

Consider GGACCCCA, for which the binding signal came out at 0.0357 E-score.

With CATGGTCG, the binding signal amounted to 0.0185 E-score.

As for GCCCGGCC, the binding signal is -0.0409 E-score.

In the case of ACCACACA, the binding signal is -0.116 E-score.

Regarding ATCCTTAC, the binding signal was 0.247 E-score. As for ACATATCC, the binding signal turned out to be 0.381 E-score. With ACAGAGAT, the binding signal is 0.138 E-score.

As for AATGGGGA, the binding signal was -0.0813 E-score. Consider TCAGCAAA, for which the binding signal was -0.0512 E-score. For ACCTAAAG, the binding signal is -0.182 E-score. As to GGACGATA, the binding signal stood at 0.321 E-score.

As for CATCTAGC, the binding signal was -0.15 E-score. As for ACAACTGG, the binding signal is -0.0531 E-score.

As for AACAGACC, the binding signal is -0.173 E-score. Next, CAAAACGA: -0.0138 E-score; ATTAGTAA: -0.146 E-score. Take GTAGCTGA: the binding signal is -0.13 E-score. As for CACTATTC, the binding signal is -0.13 E-score. For ACATTGAA, the binding signal was -0.144 E-score. Take AGACCATC: the binding signal was -0.162 E-score. For the sequence GGCGCAAA, the binding signal was -0.209 E-score.

ATGCGTAC: the binding signal is -0.0571 E-score.

For the sequence AGCGGAAT, the binding signal is -0.169 E-score. Next, CGGTTCAG: -0.098 E-score; CAGTAAAC: 0.0198 E-score. For the sequence AACTTGGA, the binding signal came to 0.0464 E-score. With AAGAAAAA, the binding signal is -0.108 E-score. For GACCACGC, the binding signal was -0.112 E-score.

For the sequence AAGTGAGA, the binding signal stood at 0.142 E-score. As to AGGTTCTC, the binding signal is -0.00898 E-score. With TAGCGGAA, the binding signal is -0.103 E-score.

For AGACATGC, the binding signal is -0.0943 E-score. Next, CCCTCACG: -0.0727 E-score; AGAAGTCT: -0.155 E-score; GATGTGTA: 0.119 E-score.

Consider CAGATTCC, for which the binding signal was -0.047 E-score. For the sequence TCCGATCA, the binding signal turned out to be 0.212 E-score. For the sequence CAGAACCC, the binding signal was -0.0182 E-score. Next, ACACCACT: 0.378 E-score; AAATTTCC: -0.232 E-score; CTAGTTCA: -0.211 E-score. In the case of CCAACCGA, the binding signal was 0.0868 E-score. As for AAAGATTA, the binding signal is -0.0747 E-score.

Consider AGACTTCC, for which the binding signal is -0.135 E-score. CGAATCGC: the binding signal was -0.0572 E-score.

Take CTTGTAAA: the binding signal is -0.331 E-score. Next, AACATTCC: -0.341 E-score.

Regarding GAAAAGAC, the binding signal is -0.182 E-score. With CACCGTAC, the binding signal stood at 0.184 E-score. As to GCTAAAAC, the binding signal was -0.238 E-score. On to TATCCTGA, for which the binding signal came to 0.382 E-score. The value for GTCTCCAC was -0.162 E-score; that for GCCACGTA was -0.136 E-score. Regarding ACTTATAC, the binding signal worked out at 0.0258 E-score. Next, GTCGGAAC: -0.074 E-score. The value for CCCAATGC was -0.159 E-score. AACCGTGG: the binding signal was -0.195 E-score. CGTCAAAG: the binding signal was -0.299 E-score. As for ACGTTTAT, the binding signal was -0.127 E-score. Regarding ATGTATTG, the binding signal turned out to be 0.209 E-score. Regarding AACGCGTT, the binding signal is -0.105 E-score.

For AGCTATGA, the binding signal was found to be 0.0341 E-score. As for ATGCGGAA, the binding signal was -0.00985 E-score. Turning to ACCTGAAG, the binding signal is -0.107 E-score. With ACAGTATA, the binding signal came out at 0.287 E-score. ACGGATCA: the binding signal is 0.43 E-score.

With AATAGGTA, the binding signal came out at 0.0805 E-score. As to TCTCGCCA, the binding signal is -0.131 E-score.

For the origin of these results see article PMC10668032.
